From PubChem BioAssay AID504339 (National Center for Advancing Translational Sciences (NCATS), 2011)
“And” between values parts separate entries of the source, which are not always exact repeats. Equal values may be shown once. About 17,000 (4.4%) of roughly 390,000 compounds were called active. The inconclusive results got no clear call from the source; some entries with a clear call stand among them for comparison. Calls follow the shape of the dose curve; as a rule, active = well fitted inhibition curve with a large enough effect; inconclusive = small, poorly fitted or top-dose-only effect; inactive = no such curve, though single readings can be large or run the other way. Potencies of inconclusive entries are doubtful fits and often do not repeat. Numbered stars: 1 amine (or outer) side, 2 acyl side, 3 side chain; on linkers, the order of the positions; unused ones are H or OH. Bridge positions count the residues as written; N and C are the ends. Square brackets hold non-standard residues; d marks the D form. Peptide text beside a SMILES is read from it. ξ: configuration not given here. hSer(Ph(2-I,4-NO2,6-CO)) = O=C([C@H](CCOc1c(I)cc([N+](=O)[O-])cc1C(=O)[*:3])N[*:1])[*:2]; ξD = NC(CC(=O)O)C(=O)O

Target: Lysine-specific demethylase 4A (Homo sapiens) (UniProt O75164)
Test: qHTS Assay for Inhibitors of JMJD2A-Tudor Domain; also: nearly all actives have a fitted effect of over 50% in size
Conditions: AlphaScreen JMJD2A-Tudor / H3K4me3 peptide binding; activity change, negative = inhibition: at 114 µM (top of the series)
% is scaled to controls: 0 for no effect and ±100 for the full control effect; potency is read from the fitted curve at half-maximal effect; tags tell the direction and shape of the fitted curve.

Sequence of UniProt O75164 (O75164 whole entry, looked up, the tested form may be a part): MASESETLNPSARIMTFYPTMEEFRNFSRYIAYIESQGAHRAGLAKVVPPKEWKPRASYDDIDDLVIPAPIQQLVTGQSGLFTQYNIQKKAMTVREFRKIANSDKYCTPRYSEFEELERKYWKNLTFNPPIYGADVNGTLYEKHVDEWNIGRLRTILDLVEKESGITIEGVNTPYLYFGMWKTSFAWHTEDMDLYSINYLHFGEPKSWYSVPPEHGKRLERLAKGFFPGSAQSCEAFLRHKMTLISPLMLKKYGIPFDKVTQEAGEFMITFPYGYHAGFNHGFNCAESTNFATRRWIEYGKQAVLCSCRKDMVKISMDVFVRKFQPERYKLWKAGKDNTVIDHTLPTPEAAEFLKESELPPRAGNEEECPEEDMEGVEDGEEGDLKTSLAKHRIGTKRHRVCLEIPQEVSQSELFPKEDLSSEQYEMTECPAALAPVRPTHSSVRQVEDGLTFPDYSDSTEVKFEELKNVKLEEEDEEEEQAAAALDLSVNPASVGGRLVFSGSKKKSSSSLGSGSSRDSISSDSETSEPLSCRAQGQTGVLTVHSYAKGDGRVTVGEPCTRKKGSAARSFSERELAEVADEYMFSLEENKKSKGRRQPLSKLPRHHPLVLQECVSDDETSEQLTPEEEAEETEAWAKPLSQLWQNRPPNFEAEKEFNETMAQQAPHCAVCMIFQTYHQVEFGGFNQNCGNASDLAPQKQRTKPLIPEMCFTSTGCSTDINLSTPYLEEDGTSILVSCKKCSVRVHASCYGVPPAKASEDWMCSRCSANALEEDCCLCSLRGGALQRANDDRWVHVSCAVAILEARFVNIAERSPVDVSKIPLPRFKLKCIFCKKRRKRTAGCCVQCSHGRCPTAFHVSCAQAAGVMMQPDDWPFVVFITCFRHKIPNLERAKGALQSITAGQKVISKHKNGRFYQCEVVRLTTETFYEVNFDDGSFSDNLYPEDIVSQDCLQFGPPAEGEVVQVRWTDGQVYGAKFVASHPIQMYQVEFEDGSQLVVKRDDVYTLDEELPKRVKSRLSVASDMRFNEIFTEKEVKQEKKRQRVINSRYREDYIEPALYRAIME

| Structure (SMILES) | Potency | activity change, negative = inhibition |
| --- | --- | --- |
| Cc1cc(Cl)ccc1-n1c(-c2cccnc2)n[nH]c1=S | active: 28.2 µM | – |
| COc1ccc(NC(=O)CSCC(=O)Nc2nnc(CC(C)C)s2)cc1 | inconclusive: 7.94 µM [inhibitor, partial curve, poor fit] | – |
| O=C(NCCc1ccccc1)C1CCCN(S(=O)(=O)c2cccc3nsnc23)C1 (stereo not given) | inconclusive: 70.8 µM [inhibitor, single point] | – |
| CC(/C=C1\N=C(SCc2ccccc2Cl)SC1=O)=C\c1ccccc1 | active: 56.2 µM | – |
| COc1cccc(C2C(C(C)=O)=C(O)C(=O)N2Cc2ccco2)c1 (stereo not given) | inconclusive: 31.6 µM [inhibitor, partial curve] | – |
| CC(=O)/C(=N\Nc1ccc(Cl)cc1Cl)Sc1cccc2cccnc12 | inconclusive: 11.2 µM [inhibitor, full curve, poor fit] | – |
| CC(C)(C)c1[nH]ncc1[N+](=O)[O-] | – | inactive: -2.35% |
| CC(=O)c1ccc(NC(=O)NCCc2c[nH]c3ccccc23)cc1 | inconclusive: 56.2 µM [inhibitor, partial curve] | – |
| Cc1ccc(-c2noc(CN3CCN(C(c4ccccc4)c4ccccc4)CC3)n2)cc1 | – | inactive: -15.3% |
| COc1ccc(CNC(=O)C[C@H]2C[C@H](C(=O)N(C(C)C)C(C)C)[C@@]3(C)c4[nH]c5ccc(Cl)cc5c4CCN3C2=O)cc1OC | inconclusive: 56.2 µM [inhibitor, partial curve] | – |
| CC1(C)Cc2nc3[nH]c(=S)[nH]c(=O)c3cc2CO1 | inconclusive: 28.2 µM [inhibitor, single point] | – |
| CCc1cccc(NC(=O)CSc2ncc3c(n2)-c2ccccc2N(Cc2ccccc2C)S3(=O)=O)c1 | – | inactive: -4.87% |
| CCCCN1CC(O)=C(c2nc(-c3ccc(Br)cc3)cs2)C1=N | inconclusive: 12.6 µM [inhibitor, full curve] | – |
| O=C(COc1ccc(F)cc1)Nc1ccc2nc(SCc3ccccc3)sc2c1 | – | inactive: -13.2% |
| O=C(CC1(O)C(=O)N(CCc2ccccc2)c2ccc(Br)cc21)c1ccccc1O (stereo not given) | inconclusive: 31.6 µM [inhibitor, partial curve] | – |
| COc1ccc(NC(=O)Cc2csc(C)n2)cc1 | – | inactive: -1.26% |
| CCn1c(SCC(=O)N/N=C/C(C)=C\c2ccco2)nnc1-c1ccccc1 | inconclusive: 39.8 µM [inhibitor, partial curve] | – |
| COc1ccc(NC(=O)CSCC(=O)N(C)CC(=O)Nc2cccc3ccccc23)cc1 | – | inactive: -7.21% |
| O=c1cc(-c2cccc(F)c2)oc2ccccc12 | – | inactive: 3.45% |
| N#Cc1c(N)oc(-c2ccc3c(c2)OCO3)c1-c1ccc2c(c1)OCO2 | – | inactive: -31.9% |
| O=C(CC1SC(N2CCCCC2)=NC1=O)Nc1cccc(C(=O)Nc2ncccc2O)c1 (stereo not given) | inconclusive: 22.4 µM [inhibitor, full curve] | – |
| O=[N+]1C2=C(CCCC2)N([O-])C12CCCC2 | inconclusive: 89.1 µM [inhibitor, partial curve] | – |
| Cc1ccc(Nc2nc(N/N=C/c3c[nH]c4ccccc34)nc(N3CCOCC3)n2)cc1 | active: 44.7 µM | – |
| NCCCNc1ncnc2ccc(-c3ccc4c(c3)OCO4)cc12 | inconclusive: 56.2 µM [inhibitor, partial curve] | – |

| Structure (SMILES) | Potency | activity change, negative = inhibition |
| --- | --- | --- |
| CCCN1C(=O)C(O)(CC(=O)c2cccc(OC)c2)c2ccccc21 (stereo not given) | inconclusive: 79.4 µM [inhibitor, partial curve] | – |
| Cc1ccc(-c2nc(SCc3ccc(Br)cc3)n3[nH]c(=O)cc3n2)cc1 | inconclusive: 35.5 µM [inhibitor, partial curve] | – |
| O=C(N/N=C/c1ccc[nH]1)c1ccccc1OCc1ccccc1Cl | inconclusive: 25.1 µM [inhibitor, full curve, poor fit] | – |
| CC(C)c1ccc(/C=N/Nc2ccc(C(=O)O)cc2)cc1 | – | inactive: -25.1% |
| CC1(c2ccccc2)CC(C)(C)N2C(=O)C3(C(C#N)=C(N)Oc4cc(O)ccc43)c3cccc1c32 (stereo not given) | inconclusive: 39.8 µM [inhibitor, partial curve] | – |
| Cc1c(C)n(C)c2ccc(C(=O)NCCCN3CCCCC3)cc12 | inconclusive: 79.4 µM [inhibitor, partial curve] | – |
| O=C1C=CC(=O)N1c1ccc(N2CCCCC2)cc1 | active: 20 µM | – |
| COc1ccc([N+](=O)[O-])cc1NC(=O)CSc1nc(C)cc(C)n1 | inconclusive: 89.1 µM [inhibitor, single point] | – |
| Cc1ccc2sc(NNC(=O)C3COc4ccccc4O3)nc2c1C (stereo not given) | inconclusive: 25.1 µM [inhibitor, full curve] | – |
| Fc1ccccc1-n1[nH]nnc1=S | inconclusive: 44.7 µM [inhibitor, partial curve] | – |
| CN(C)c1ccc(C(CNS(=O)(=O)c2ccc(Br)cc2)N2CCOCC2)cc1 (stereo not given) | inconclusive: 56.2 µM [inhibitor, partial curve] | – |
| Cc1ccc(-n2c(Cn3nc(C(F)F)cc3C(F)F)n[nH]c2=S)cc1 | active: 79.4 µM | – |
| Cc1cc(N2CCN(C(c3ccccc3)c3ccc(Cl)cc3)CC2)n2ncnc2n1 (stereo not given) | inconclusive: 35.5 µM [inhibitor, full curve] | – |
| CCN(CC)Cc1c(C(=O)N/N=C/c2ccccn2)nnn1-c1nonc1N | inconclusive: 63.1 µM [inhibitor, partial curve, poor fit] | – |
| Cc1cc(NC(=O)c2cccc(Oc3ccccc3)c2)n[nH]1 | – | inactive: -23.8% |
| CN(Cc1ccco1)c1ncnc2ccc(-c3ccc4c(c3)OCO4)cc12 | inconclusive: 63.1 µM [inhibitor, partial curve, poor fit] and inconclusive: 70.8 µM [inhibitor, partial curve] | – |
| Oc1ccc(Br)cc1-c1cc(-c2ccccc2F)[nH]n1 | – | inactive: 3.17% |
| CC(C)(C)OC(=O)N1CCC(c2c(C(=O)NCc3ccco3)cnn2-c2ccc(F)cc2)CC1 | – | inactive: -28.2% |
| Cc1ccccc1Nc1nc(-c2sc(NC(=O)c3ccco3)nc2C)cs1 | inconclusive: 50.1 µM [inhibitor, partial curve] | – |
| Cc1ccc(-n2ncc(C(=O)N3CCN(Cc4ccccc4)CC3)c2C2CCN(C(=O)OC(C)(C)C)CC2)c(C)c1 | – | inactive: -22% |
| S=C(NCCCc1cnc[nH]1)NCCCN(Cc1ccc(Cl)cc1)c1ncc(Br)cn1 | active: 50.1 µM | – |
| C[N+]12CCCCC1C(COC(=O)c1ccc3c(c1)OCO3)CCC2 (stereo not given) | active: 20 µM | – |
| C[C@@H]1NC(=O)c2cc([N+](=O)[O-])cc(I)c2OCC[C@@H](C(=O)NC(CC(=O)O)C(N)=O)NC(=O)[C@H](CC(N)=O)NC1=O (stereo not given in full) (AN[hSer(Ph(2-I,4-NO2,6-CO))][ξD]-NH2; lactam N-3) | inconclusive: 25.1 µM [inhibitor, single point] | – |
| Cc1cccc(CC(=O)NCCN2CCCCC2)c1 | – | inactive: -5.52% |

| Structure (SMILES) | Potency | activity change, negative = inhibition |
| --- | --- | --- |
| Cn1c(=O)c2c(nc(NCCCO)n2Cc2cccc(C(F)(F)F)c2)n(C)c1=O | – | inactive: -28.7% |
| CCC(=C/c1sc2ccc3ccccc3c2[n+]1C)/C=C1\Sc2ccc3ccccc3c2N1C | active: 50.1 µM | – |
| CCOC(=O)Cc1csc(NC(=O)CSc2nc(C)cc(C)n2)n1 | – | inactive: -13% |
| CCn1c(C)c(C)c2cc(C(=O)NCCc3ccc(C)cc3)ccc21 | inconclusive: 22.4 µM [inhibitor, full curve, poor fit] | – |
| CCOC(=O)c1nnc2c(Br)c(-c3ccccc3)nn2c1C | inconclusive: 39.8 µM [inhibitor, single point] | – |
| O=C(O)C1OC(C(=O)O)C2C1C(F)(F)C2(F)F (stereo not given) | active: 28.2 µM | – |
| CC(C)NC(=O)c1cc2c(-c3ccc(Cl)cc3)nn(C)c2s1 | – | inactive: -17.9% |
| COc1cccc(C(=O)NC2CCN(CC(=O)Nc3nccs3)CC2)c1 | inconclusive: 39.8 µM [inhibitor, single point] | – |
| COc1ccc(N(C(C)=O)S(=O)(=O)c2cc(OC)ccc2OC)cc1 | – | inactive: -12.1% |
| CCOc1ccc(C(=O)N2CCN(Cc3cc(=O)n4nc(-c5ccccc5Cl)sc4n3)CC2)cc1 | – | inactive: -5.52% |
| COc1ccc(S(=O)(=O)N2CCN(C3Cc4ccccc4C3)CC2)cc1 | – | inactive: -3.57% |
| c1ccc(-n2ncc3c(NCCN4CCOCC4)ncnc32)cc1 | inconclusive: 100 µM [inhibitor, single point] | – |
| COCCCNC(=O)CCc1c(C)nc2cc(-c3ccc(Cl)cc3)nn2c1C | – | inactive: -16.2% |
| CC(C)C(=O)Nc1ccc2nc(SCCOc3ccccc3)sc2c1 | – | inactive: -12.3% |
| CC(=O)O[C@@H]1[C@@H](O)[C@@H](O)[C@H](Oc2c(-c3ccc(O)cc3)oc3c(CC=C(C)C)c(O)cc(O)c3c2=O)O[C@H]1C | inconclusive: 44.7 µM [inhibitor, partial curve] | – |
| CCCCOCc1cc(CN2CCN(c3cccc(Cl)c3)CC2)c(O)c2ncccc12 | active: 3.98 µM | – |
| Cc1ccc(CNc2ccc(S(=O)(=O)N3CCOCC3)cc2[N+](=O)[O-])cc1 | inconclusive: 31.6 µM [inhibitor, full curve, poor fit] | – |
| Cc1ccc(C(=O)Nc2nc(-c3cc(Cl)sc3Cl)cs2)cc1 | inconclusive: 100 µM [inhibitor, partial curve] | – |
| CCN1CCC(N(Cc2ccc3c(c2)OCO3)C(=O)Nc2ccc(Br)c(C)c2)CC1 | inconclusive: 50.1 µM [inhibitor, partial curve] | – |
| Cc1cc(C=C2C(=O)CCCC2=O)c(C)n1-c1ccccc1 | inconclusive: 28.2 µM [inhibitor, full curve] | – |
| Cc1cccc(N2CCN(C(=O)C3CCN(c4nnc(-n5cccc5)s4)CC3)CC2C)c1 (stereo not given) | inconclusive: 50.1 µM [inhibitor, partial curve] | – |
| C=C(C)COc1ccc(-c2n[nH]c(C)c2-c2ccc(OC)c(OC)c2)c(O)c1 | inconclusive: 25.1 µM [inhibitor, partial curve] | – |
